Laboratory results as given in US20110319597A1 (CAPHALON AUSTRALIA, published 2011).

biological target: T1, recombinant human TNFα (CytoLab) (human, UniProt P01375 fragment); experiment: ELISA on coated human TNFα
T1 construct: coated on the ELISA plate at 1 µg/ml; also called Tumour necrosis factor alpha
T1 sequence (P01375 77-233 limits assumed): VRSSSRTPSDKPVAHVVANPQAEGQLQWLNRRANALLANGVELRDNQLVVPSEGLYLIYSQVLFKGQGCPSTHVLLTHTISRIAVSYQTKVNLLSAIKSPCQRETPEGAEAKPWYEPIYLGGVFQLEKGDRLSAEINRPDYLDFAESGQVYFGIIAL

| Binder | A450 (AU) |
| --- | --- |
| TNFα dAb Fc variant E81L (Fc fusion, name in Kabat numbering) DIQMTQSPSSLSASVGDRVTITCRASQAIDSYLHWYQQKPGKAPKLLIYSASNLETGVPSRFSGSGSGTDFTLTISSLLPLDFATYYCQQVVWRPFTFGQGTKVEIKRV[human IgG1 Fc with changes left out] | 0.824 |
| TNFα dAb Fc variant E81P (Fc fusion, name in Kabat numbering) DIQMTQSPSSLSASVGDRVTITCRASQAIDSYLHWYQQKPGKAPKLLIYSASNLETGVPSRFSGSGSGTDFTLTISSLLPPDFATYYCQQVVWRPFTFGQGTKVEIKRV[human IgG1 Fc with changes left out] | 0.761 |
| TNFα dAb Fc variant E81Q (Fc fusion, name in Kabat numbering) DIQMTQSPSSLSASVGDRVTITCRASQAIDSYLHWYQQKPGKAPKLLIYSASNLETGVPSRFSGSGSGTDFTLTISSLLPQDFATYYCQQVVWRPFTFGQGTKVEIKRV[human IgG1 Fc with changes left out] | 0.808 |
| TNFα dAb Fc variant E81S (Fc fusion, name in Kabat numbering) DIQMTQSPSSLSASVGDRVTITCRASQAIDSYLHWYQQKPGKAPKLLIYSASNLETGVPSRFSGSGSGTDFTLTISSLLPSDFATYYCQQVVWRPFTFGQGTKVEIKRV[human IgG1 Fc with changes left out] | 0.787 |
| TNFα dAb Fc variant E81Y (Fc fusion, name in Kabat numbering) DIQMTQSPSSLSASVGDRVTITCRASQAIDSYLHWYQQKPGKAPKLLIYSASNLETGVPSRFSGSGSGTDFTLTISSLLPYDFATYYCQQVVWRPFTFGQGTKVEIKRV[human IgG1 Fc with changes left out] | 0.793 |
| TNFα dAb Fc variant F62A (Fc fusion, name in Kabat numbering) DIQMTQSPSSLSASVGDRVTITCRASQAIDSYLHWYQQKPGKAPKLLIYSASNLETGVPSRASGSGSGTDFTLTISSLLPEDFATYYCQQVVWRPFTFGQGTKVEIKRV[human IgG1 Fc with changes left out] | 0.22 |
| TNFα dAb Fc variant F62D (Fc fusion, name in Kabat numbering) DIQMTQSPSSLSASVGDRVTITCRASQAIDSYLHWYQQKPGKAPKLLIYSASNLETGVPSRDSGSGSGTDFTLTISSLLPEDFATYYCQQVVWRPFTFGQGTKVEIKRV[human IgG1 Fc with changes left out] | 0.208 |
| TNFα dAb Fc variant F62K (Fc fusion, name in Kabat numbering) DIQMTQSPSSLSASVGDRVTITCRASQAIDSYLHWYQQKPGKAPKLLIYSASNLETGVPSRKSGSGSGTDFTLTISSLLPEDFATYYCQQVVWRPFTFGQGTKVEIKRV[human IgG1 Fc with changes left out] | 0.292 |
| TNFα dAb Fc variant F62L (Fc fusion, name in Kabat numbering) DIQMTQSPSSLSASVGDRVTITCRASQAIDSYLHWYQQKPGKAPKLLIYSASNLETGVPSRLSGSGSGTDFTLTISSLLPEDFATYYCQQVVWRPFTFGQGTKVEIKRV[human IgG1 Fc with changes left out] | 0.613 |
| TNFα dAb Fc variant F62P (Fc fusion, name in Kabat numbering) DIQMTQSPSSLSASVGDRVTITCRASQAIDSYLHWYQQKPGKAPKLLIYSASNLETGVPSRPSGSGSGTDFTLTISSLLPEDFATYYCQQVVWRPFTFGQGTKVEIKRV[human IgG1 Fc with changes left out] | 0.226 |
| TNFα dAb Fc variant F62Q (Fc fusion, name in Kabat numbering) DIQMTQSPSSLSASVGDRVTITCRASQAIDSYLHWYQQKPGKAPKLLIYSASNLETGVPSRQSGSGSGTDFTLTISSLLPEDFATYYCQQVVWRPFTFGQGTKVEIKRV[human IgG1 Fc with changes left out] | 0.184 |
| TNFα dAb Fc variant F62S (Fc fusion, name in Kabat numbering) DIQMTQSPSSLSASVGDRVTITCRASQAIDSYLHWYQQKPGKAPKLLIYSASNLETGVPSRSSGSGSGTDFTLTISSLLPEDFATYYCQQVVWRPFTFGQGTKVEIKRV[human IgG1 Fc with changes left out] | 0.206 |
| TNFα dAb Fc variant F71A (Fc fusion, name in Kabat numbering) DIQMTQSPSSLSASVGDRVTITCRASQAIDSYLHWYQQKPGKAPKLLIYSASNLETGVPSRFSGSGSGTDATLTISSLLPEDFATYYCQQVVWRPFTFGQGTKVEIKRV[human IgG1 Fc with changes left out] | 0.185 |
| TNFα dAb Fc variant F71D (Fc fusion, name in Kabat numbering) DIQMTQSPSSLSASVGDRVTITCRASQAIDSYLHWYQQKPGKAPKLLIYSASNLETGVPSRFSGSGSGTDDTLTISSLLPEDFATYYCQQVVWRPFTFGQGTKVEIKRV[human IgG1 Fc with changes left out] | 0.176 |
| TNFα dAb Fc variant F71H (Fc fusion, name in Kabat numbering) DIQMTQSPSSLSASVGDRVTITCRASQAIDSYLHWYQQKPGKAPKLLIYSASNLETGVPSRFSGSGSGTDHTLTISSLLPEDFATYYCQQVVWRPFTFGQGTKVEIKRV[human IgG1 Fc with changes left out] | 0.315 |
| TNFα dAb Fc variant F71K (Fc fusion, name in Kabat numbering) DIQMTQSPSSLSASVGDRVTITCRASQAIDSYLHWYQQKPGKAPKLLIYSASNLETGVPSRFSGSGSGTDKTLTISSLLPEDFATYYCQQVVWRPFTFGQGTKVEIKRV[human IgG1 Fc with changes left out] | 0.213 |
| TNFα dAb Fc variant F71L (Fc fusion, name in Kabat numbering) DIQMTQSPSSLSASVGDRVTITCRASQAIDSYLHWYQQKPGKAPKLLIYSASNLETGVPSRFSGSGSGTDLTLTISSLLPEDFATYYCQQVVWRPFTFGQGTKVEIKRV[human IgG1 Fc with changes left out] | 0.208 |
| TNFα dAb Fc variant F71P (Fc fusion, name in Kabat numbering) DIQMTQSPSSLSASVGDRVTITCRASQAIDSYLHWYQQKPGKAPKLLIYSASNLETGVPSRFSGSGSGTDPTLTISSLLPEDFATYYCQQVVWRPFTFGQGTKVEIKRV[human IgG1 Fc with changes left out] | 0.205 |
| TNFα dAb Fc variant F71Q (Fc fusion, name in Kabat numbering) DIQMTQSPSSLSASVGDRVTITCRASQAIDSYLHWYQQKPGKAPKLLIYSASNLETGVPSRFSGSGSGTDQTLTISSLLPEDFATYYCQQVVWRPFTFGQGTKVEIKRV[human IgG1 Fc with changes left out] | 0.191 |
| TNFα dAb Fc variant F71S (Fc fusion, name in Kabat numbering) DIQMTQSPSSLSASVGDRVTITCRASQAIDSYLHWYQQKPGKAPKLLIYSASNLETGVPSRFSGSGSGTDSTLTISSLLPEDFATYYCQQVVWRPFTFGQGTKVEIKRV[human IgG1 Fc with changes left out] | 0.226 |
| TNFα dAb Fc variant F71Y (Fc fusion, name in Kabat numbering) DIQMTQSPSSLSASVGDRVTITCRASQAIDSYLHWYQQKPGKAPKLLIYSASNLETGVPSRFSGSGSGTDYTLTISSLLPEDFATYYCQQVVWRPFTFGQGTKVEIKRV[human IgG1 Fc with changes left out] | 0.597 |
| TNFα dAb Fc variant G41D (Fc fusion, name in Kabat numbering) DIQMTQSPSSLSASVGDRVTITCRASQAIDSYLHWYQQKPDKAPKLLIYSASNLETGVPSRFSGSGSGTDFTLTISSLLPEDFATYYCQQVVWRPFTFGQGTKVEIKRV[human IgG1 Fc with changes left out] | 0.883 |
| TNFα dAb Fc variant G41K (Fc fusion, name in Kabat numbering) DIQMTQSPSSLSASVGDRVTITCRASQAIDSYLHWYQQKPKKAPKLLIYSASNLETGVPSRFSGSGSGTDFTLTISSLLPEDFATYYCQQVVWRPFTFGQGTKVEIKRV[human IgG1 Fc with changes left out] | 0.877 |
| TNFα dAb Fc variant G41L (Fc fusion, name in Kabat numbering) DIQMTQSPSSLSASVGDRVTITCRASQAIDSYLHWYQQKPLKAPKLLIYSASNLETGVPSRFSGSGSGTDFTLTISSLLPEDFATYYCQQVVWRPFTFGQGTKVEIKRV[human IgG1 Fc with changes left out] | 0.906 |
| TNFα dAb Fc variant G57Y (Fc fusion, name in Kabat numbering) DIQMTQSPSSLSASVGDRVTITCRASQAIDSYLHWYQQKPGKAPKLLIYSASNLETYVPSRFSGSGSGTDFTLTISSLLPEDFATYYCQQVVWRPFTFGQGTKVEIKRV[human IgG1 Fc with changes left out] | 1.08 |
| TNFα dAb Fc variant G64D (Fc fusion, name in Kabat numbering) DIQMTQSPSSLSASVGDRVTITCRASQAIDSYLHWYQQKPGKAPKLLIYSASNLETGVPSRFSDSGSGTDFTLTISSLLPEDFATYYCQQVVWRPFTFGQGTKVEIKRV[human IgG1 Fc with changes left out] | 0.171 |
| TNFα dAb Fc variant G64H (Fc fusion, name in Kabat numbering) DIQMTQSPSSLSASVGDRVTITCRASQAIDSYLHWYQQKPGKAPKLLIYSASNLETGVPSRFSHSGSGTDFTLTISSLLPEDFATYYCQQVVWRPFTFGQGTKVEIKRV[human IgG1 Fc with changes left out] | 0.263 |
| TNFα dAb Fc variant G64K (Fc fusion, name in Kabat numbering) DIQMTQSPSSLSASVGDRVTITCRASQAIDSYLHWYQQKPGKAPKLLIYSASNLETGVPSRFSKSGSGTDFTLTISSLLPEDFATYYCQQVVWRPFTFGQGTKVEIKRV[human IgG1 Fc with changes left out] | 0.226 |
| TNFα dAb Fc variant G64L (Fc fusion, name in Kabat numbering) DIQMTQSPSSLSASVGDRVTITCRASQAIDSYLHWYQQKPGKAPKLLIYSASNLETGVPSRFSLSGSGTDFTLTISSLLPEDFATYYCQQVVWRPFTFGQGTKVEIKRV[human IgG1 Fc with changes left out] | 0.189 |
| TNFα dAb Fc variant G64P (Fc fusion, name in Kabat numbering) DIQMTQSPSSLSASVGDRVTITCRASQAIDSYLHWYQQKPGKAPKLLIYSASNLETGVPSRFSPSGSGTDFTLTISSLLPEDFATYYCQQVVWRPFTFGQGTKVEIKRV[human IgG1 Fc with changes left out] | 0.643 |
